# Paper PMC4336329 (PLoS ONE, 2015)
# Hit rate of the full screen: of about 310,000 compounds, about 2,200 (0.71%) showed an effect of 50% or more. The effect is printed as a negative number. The list shows a part of the results.
# Target: human ether-à-go-go-related gene (hERG) potassium channel (human, UniProt Q12809)
# Test: primary screen, population patch clamp on CHO cells stably expressing hERG
# Sequence of human ether-à-go-go-related gene (hERG) potassium channel (Q12809 whole entry, looked up): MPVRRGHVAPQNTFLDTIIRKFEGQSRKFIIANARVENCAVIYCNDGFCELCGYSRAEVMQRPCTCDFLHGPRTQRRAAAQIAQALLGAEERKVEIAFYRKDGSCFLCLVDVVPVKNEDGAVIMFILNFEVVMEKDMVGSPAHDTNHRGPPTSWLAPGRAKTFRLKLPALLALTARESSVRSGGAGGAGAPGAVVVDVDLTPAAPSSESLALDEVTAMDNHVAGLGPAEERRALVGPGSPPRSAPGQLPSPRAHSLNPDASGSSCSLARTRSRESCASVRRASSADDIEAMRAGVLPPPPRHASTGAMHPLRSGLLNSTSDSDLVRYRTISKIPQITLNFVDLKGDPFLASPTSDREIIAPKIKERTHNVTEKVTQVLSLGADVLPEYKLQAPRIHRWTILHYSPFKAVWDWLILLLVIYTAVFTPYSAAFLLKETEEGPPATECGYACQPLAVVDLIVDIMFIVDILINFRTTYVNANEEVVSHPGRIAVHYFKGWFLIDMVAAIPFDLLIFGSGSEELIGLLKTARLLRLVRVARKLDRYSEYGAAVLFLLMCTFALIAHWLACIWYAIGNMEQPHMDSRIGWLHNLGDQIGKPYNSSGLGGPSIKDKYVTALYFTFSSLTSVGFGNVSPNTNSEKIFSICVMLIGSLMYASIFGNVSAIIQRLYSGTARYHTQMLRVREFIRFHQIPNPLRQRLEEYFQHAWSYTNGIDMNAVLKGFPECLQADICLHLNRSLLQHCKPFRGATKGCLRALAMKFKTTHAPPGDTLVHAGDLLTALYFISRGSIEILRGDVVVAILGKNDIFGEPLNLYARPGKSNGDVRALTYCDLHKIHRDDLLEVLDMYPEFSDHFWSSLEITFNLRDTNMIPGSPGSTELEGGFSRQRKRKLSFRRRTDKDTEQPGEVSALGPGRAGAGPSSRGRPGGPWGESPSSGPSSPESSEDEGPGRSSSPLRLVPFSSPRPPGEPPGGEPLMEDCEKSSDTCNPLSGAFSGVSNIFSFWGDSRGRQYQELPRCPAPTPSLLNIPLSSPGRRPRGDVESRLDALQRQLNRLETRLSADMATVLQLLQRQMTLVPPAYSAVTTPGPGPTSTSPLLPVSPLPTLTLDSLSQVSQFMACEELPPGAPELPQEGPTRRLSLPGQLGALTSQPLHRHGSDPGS
row,SMILES,"hERG current change (%, negative = inhibition) at 1uM [%]"
1,COc1ccc(-c2c3c(=O)n(C)c(=O)n(C)c3cn2-c2ccc(O)cc2)cc1,0.946
2,Cc1cc(-c2csc(N)n2)c(C)n1Cc1ccco1,12.5
3,CC(=O)Nc1ccc(S(=O)(=O)NCCC(=O)Nc2ncccc2C)cc1,9.09
4,COc1ccc(CCN(Cc2ccccn2)C(=S)Nc2ccc(C)cc2)cc1OC,-14.2
5,O=C(NN1C(=O)C2C3c4ccccc4C(c4ccccc43)C2C1=O)c1ccc(Cl)cc1 (stereo not shown),4.89
6,O=C1CCC(C(=O)OCc2cc(=O)oc3ccc4ccccc4c23)=NN1,1.06
7,O=C1CS/C(=N\N=C\c2ccccc2Cl)N1CC1CC1,8.59
8,C/C(=N/NC(=O)c1ccc2c(c1)OCO2)c1ccc(NC(=O)c2ccc(F)cc2)cc1,6.26
9,CC(=O)c1c(C)[nH]c(C(=O)COC(=O)c2ccc3c(=O)n4c(nc3c2)CCC4)c1C,4.65
10,CCCCn1c(=O)c(C(=O)OCC)c(O)c2ccccc21,2.5
11,c1ccc(-c2nc3nc4ccccc4nc3n2Cc2ccco2)cc1,-15.1
12,COc1ccc(C(=O)NC(NC(=S)Nc2ccc(S(N)(=O)=O)cc2)C(Cl)(Cl)Cl)cc1 (stereo not shown),14.3
13,Cc1ccc(N(CCC#N)C(=O)COC(=O)c2nc3nc(C)cc(C)n3n2)cc1,14.6
14,O=C(NC1CCCC1)c1cccc(S(=O)(=O)Nc2ccccc2F)c1,6.14
15,CC1CCN(C(=O)C2CCN(C(=O)c3ccc(C(C)(C)C)cc3)CC2)CC1,5.69
16,COc1cccc(Cn2cnc3c(NS(=O)(=O)c4cccc(Cl)c4Cl)c(C)c(C)cc32)c1,9.74
17,Cc1cccc(-n2nnc(C(=O)N3CCc4ccccc4C3)c2N)c1,1.93
18,Cc1ccsc1C(C(=O)NCc1ccccc1)N(C(=O)c1csnn1)c1ccccc1 (stereo not shown),14.6
19,CC(=O)NCCNC(=O)c1oc2ccccc2c1CSc1ncn[nH]1,12.7
20,CC(=O)NC(CC(=O)Nc1nc(C)cs1)c1ccccc1 (stereo not shown),7.63
21,CCOC(=O)N1CCC(NC(=O)c2cc(COc3ccccc3SC)on2)CC1,12.1
22,Brc1[nH]nc2ccccc12,-0.724

row,SMILES,"hERG current change (%, negative = inhibition) at 1uM [%]"
1,Cc1ccccc1OCC(=O)NCCC1=CCCCC1,11.2
2,COc1ccc(-c2sc3ccc(OC)cc3c2-c2ccc(OC)c(F)c2)cc1,6.88
3,O=C(O)c1ccccc1/C=N/NC(=S)NCc1ccccc1,9.88
4,O=C(COc1ccc(Cl)cc1)Nc1ccccc1C(=O)NCc1cccnc1,-1.68
5,COC(=O)c1c(C(=O)OC)c(-c2ccc(C(C)(C)C)cc2)n2c1CS(=O)C2 (stereo not shown),7.34
6,CCN1CCN(Cc2cc(OC)c(OC)cc2[N+](=O)[O-])CC1,10.4
7,COc1ccc(C(=O)NC2CC3CCCC(C2)N3Cc2ccccc2)c(OC)c1 (stereo not shown),0.894
8,c1ccc(C2c3[nH]c4ccccc4c3CCN2Cc2cccn2-c2cccnc2)nc1 (stereo not shown),3.35
9,CCc1cc(C(=O)Nc2ccccc2N2CCOCC2)sc1C,13.2
10,[O-]/C(=C(\C(=S)Nc1cccc2ccccc12)[n+]1ccccc1)c1ccc2c(c1)OCCO2,-17.6
11,NC(=O)COC(=O)c1cccc(S(=O)(=O)N2CCCc3ccccc32)c1,-1.75
12,Cc1cccc(N=C2NC(=O)/C(=C/c3cccn3C)S2)c1C,4.75
13,CC(=O)c1cccc(N(CC(=O)NC2CCCCC2)C(=O)CNC(=O)c2cccs2)c1,20.7
14,NC(=O)CC(NC(=O)c1ccc(Br)cc1)c1ccc(NC2CCCCCC2)c([N+](=O)[O-])c1 (stereo not shown),19.7
15,Cc1cccc(-c2ncc(CN3CCC(CO)(CCCc4ccccc4)CC3)cn2)c1,-10.6
16,O=C(COC(=O)C1CC(O)CN1S(=O)(=O)c1ccccc1[N+](=O)[O-])c1ccc[nH]1 (stereo not shown),10.8
17,O=c1c(-c2ccccc2)c(O)nc2ccccn12,5.16
18,O=C(NCCCN1CCN(c2cccc(Cl)c2)CC1)C1(S(=O)(=O)c2ccc(Cl)cc2)CC1,-29.3
19,NC(=O)c1c(-c2ccccc2)oc2ccc(O)cc12,0.84
20,O=C(N/N=C/c1cccs1)c1cccs1,15.7
21,COc1cc2c(cc1NC(=O)COc1ccc3ccccc3c1)oc1ccccc12,5.56
